Source: paper PMC12820563
The other results are listed elsewhere or left out. The list includes weakly bound sequences.

These sequences were tested against T1, MBP-FoxP3dN (UniProt Q99JB6) (assay: PD-seq (MBP pull-down with sequencing)). Conditions: 20 mM Tris-HCl pH 7.5, 100 mM NaCl, 1.5 mM MgCl2, 0.4 uM protein, 0.1 uM dsDNA library, 30 min, room temperature, amylose pull-down; high values mean tight binding; double strand, one strand shown.
T1 sequence: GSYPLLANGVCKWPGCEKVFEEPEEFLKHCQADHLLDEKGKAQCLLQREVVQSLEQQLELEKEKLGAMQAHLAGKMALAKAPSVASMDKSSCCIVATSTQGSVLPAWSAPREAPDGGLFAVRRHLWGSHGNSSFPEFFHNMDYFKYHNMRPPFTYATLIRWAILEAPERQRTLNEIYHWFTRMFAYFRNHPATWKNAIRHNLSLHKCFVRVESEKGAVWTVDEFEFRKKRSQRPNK

| Sequence | binding signal (RPM ratio (pull-down/input)) |
| --- | --- |
| GATGATTGTTCTCCCAGCTGATGAATTGGGCTGATCGAGTAAACAAATTTTCCTAATCTTTCTGTTCAAGCGCCATCTAC | 0.443 |
| GATGATTGTTCTCCCAGCTGATGAATTTACCAGATCGAGTAAACAAATTTTCCTAATCTTTCTGTTCAAGCGCCATCTAC | 0.298 |
| GATGATTGTTCTCCCAGCTGATGAATTGATTATTTCGAGTAAACAAATTTTCCTAATCTTTCTGTTCAAGCGCCATCTAC | 2.06 |
| GATGATTGTTCTCCCAGCTGATGAATTGATACAGTCGAGTAAACAAATTTTCCTAATCTTTCTGTTCAAGCGCCATCTAC | 1.15 |
| GATGATTGTTCTCCCAGCTGATGAATTCTCATAATCGAGTAAACAAATTTTCCTAATCTTTCTGTTCAAGCGCCATCTAC | 0.342 |
| GATGATTGTTCTCCCAGCTGATGAATTGCGCTTTTCGAGTAAACAAATTTTCCTAATCTTTCTGTTCAAGCGCCATCTAC | 4.02 |
| GATGATTGTTCTCCCAGCTGATGAATTACTTCTATCGAGTAAACAAATTTTCCTAATCTTTCTGTTCAAGCGCCATCTAC | 0.347 |
| GATGATTGTTCTCCCAGCTGATGAATTGATATCATCGAGTAAACAAATTTTCCTAATCTTTCTGTTCAAGCGCCATCTAC | 0.93 |
| GATGATTGTTCTCCCAGCTGATGAATTTGAGCGTTCGAGTAAACAAATTTTCCTAATCTTTCTGTTCAAGCGCCATCTAC | 1.18 |
| GATGATTGTTCTCCCAGCTGATGAATTGTCGGGGTCGAGTAAACAAATTTTCCTAATCTTTCTGTTCAAGCGCCATCTAC | 0.281 |
| GATGATTGTTCTCCCAGCTGATGAATTGGCCACCTCGAGTAAACAAATTTTCCTAATCTTTCTGTTCAAGCGCCATCTAC | 0.724 |
| GATGATTGTTCTCCCAGCTGATGAATTTTTTGTATCGAGTAAACAAATTTTCCTAATCTTTCTGTTCAAGCGCCATCTAC | 0.521 |
| GATGATTGTTCTCCCAGCTGATGAATTAGAAGATTCGAGTAAACAAATTTTCCTAATCTTTCTGTTCAAGCGCCATCTAC | 0.229 |
| GATGATTGTTCTCCCAGCTGATGAATTATGTACCTCGAGTAAACAAATTTTCCTAATCTTTCTGTTCAAGCGCCATCTAC | 1.89 |
| GATGATTGTTCTCCCAGCTGATGAATTGACCATGTCGAGTAAACAAATTTTCCTAATCTTTCTGTTCAAGCGCCATCTAC | 0.331 |
| GATGATTGTTCTCCCAGCTGATGAATTTGCCGCGTCGAGTAAACAAATTTTCCTAATCTTTCTGTTCAAGCGCCATCTAC | 0.677 |
| GATGATTGTTCTCCCAGCTGATGAATTCTCTAGGTCGAGTAAACAAATTTTCCTAATCTTTCTGTTCAAGCGCCATCTAC | 0.189 |
| GATGATTGTTCTCCCAGCTGATGAATTCGATCCGTCGAGTAAACAAATTTTCCTAATCTTTCTGTTCAAGCGCCATCTAC | 0.262 |
| GATGATTGTTCTCCCAGCTGATGAATTCACCAACTCGAGTAAACAAATTTTCCTAATCTTTCTGTTCAAGCGCCATCTAC | 0.308 |
| GATGATTGTTCTCCCAGCTGATGAATTATGGGTCTCGAGTAAACAAATTTTCCTAATCTTTCTGTTCAAGCGCCATCTAC | 0.816 |
| GATGATTGTTCTCCCAGCTGATGAATTCGTCAGTTCGAGTAAACAAATTTTCCTAATCTTTCTGTTCAAGCGCCATCTAC | 0.692 |

| Sequence | binding signal (RPM ratio (pull-down/input)) |
| --- | --- |
| GATGATTGTTCTCCCAGCTGATGAATTTACGCAATCGAGTAAACAAATTTTCCTAATCTTTCTGTTCAAGCGCCATCTAC | 3.31 |
| GATGATTGTTCTCCCAGCTGATGAATTGATACCCTCGAGTAAACAAATTTTCCTAATCTTTCTGTTCAAGCGCCATCTAC | 0.563 |
| GATGATTGTTCTCCCAGCTGATGAATTTACCCGTTCGAGTAAACAAATTTTCCTAATCTTTCTGTTCAAGCGCCATCTAC | 0.381 |
| GATGATTGTTCTCCCAGCTGATGAATTGTTCGAATCGAGTAAACAAATTTTCCTAATCTTTCTGTTCAAGCGCCATCTAC | 0.36 |
| GATGATTGTTCTCCCAGCTGATGAATTTACGAGATCGAGTAAACAAATTTTCCTAATCTTTCTGTTCAAGCGCCATCTAC | 0.339 |
| GATGATTGTTCTCCCAGCTGATGAATTCTATTCTTCGAGTAAACAAATTTTCCTAATCTTTCTGTTCAAGCGCCATCTAC | 0.487 |
| GATGATTGTTCTCCCAGCTGATGAATTGAGCAGATCGAGTAAACAAATTTTCCTAATCTTTCTGTTCAAGCGCCATCTAC | 0.334 |
| GATGATTGTTCTCCCAGCTGATGAATTGAAAGTCTCGAGTAAACAAATTTTCCTAATCTTTCTGTTCAAGCGCCATCTAC | 0.284 |
| GATGATTGTTCTCCCAGCTGATGAATTCTGATAGTCGAGTAAACAAATTTTCCTAATCTTTCTGTTCAAGCGCCATCTAC | 1.06 |
| GATGATTGTTCTCCCAGCTGATGAATTTGGACATTCGAGTAAACAAATTTTCCTAATCTTTCTGTTCAAGCGCCATCTAC | 0.997 |
| GATGATTGTTCTCCCAGCTGATGAATTGTTTCCGTCGAGTAAACAAATTTTCCTAATCTTTCTGTTCAAGCGCCATCTAC | 0.864 |
| GATGATTGTTCTCCCAGCTGATGAATTTAACTGTTCGAGTAAACAAATTTTCCTAATCTTTCTGTTCAAGCGCCATCTAC | 0.595 |
| GATGATTGTTCTCCCAGCTGATGAATTCGCGAATTCGAGTAAACAAATTTTCCTAATCTTTCTGTTCAAGCGCCATCTAC | 0.868 |
| GATGATTGTTCTCCCAGCTGATGAATTGCGTACTTCGAGTAAACAAATTTTCCTAATCTTTCTGTTCAAGCGCCATCTAC | 1.22 |
| GATGATTGTTCTCCCAGCTGATGAATTACACATCTCGAGTAAACAAATTTTCCTAATCTTTCTGTTCAAGCGCCATCTAC | 0.946 |
| GATGATTGTTCTCCCAGCTGATGAATTCCTAAACTCGAGTAAACAAATTTTCCTAATCTTTCTGTTCAAGCGCCATCTAC | 0.342 |
| GATGATTGTTCTCCCAGCTGATGAATTATCTCCATCGAGTAAACAAATTTTCCTAATCTTTCTGTTCAAGCGCCATCTAC | 0.253 |
| GATGATTGTTCTCCCAGCTGATGAATTGAACACATCGAGTAAACAAATTTTCCTAATCTTTCTGTTCAAGCGCCATCTAC | 0.649 |
| GATGATTGTTCTCCCAGCTGATGAATTAGCGGCGTCGAGTAAACAAATTTTCCTAATCTTTCTGTTCAAGCGCCATCTAC | 0.611 |
| GATGATTGTTCTCCCAGCTGATGAATTTGGTCCTTCGAGTAAACAAATTTTCCTAATCTTTCTGTTCAAGCGCCATCTAC | 0.418 |
| GATGATTGTTCTCCCAGCTGATGAATTAAGTGTGTCGAGTAAACAAATTTTCCTAATCTTTCTGTTCAAGCGCCATCTAC | 2 |

| Sequence | binding signal (RPM ratio (pull-down/input)) |
| --- | --- |
| GATGATTGTTCTCCCAGCTGATGAATTGGTTAGGTCGAGTAAACAAATTTTCCTAATCTTTCTGTTCAAGCGCCATCTAC | 0.755 |
| GATGATTGTTCTCCCAGCTGATGAATTATGTGAGTCGAGTAAACAAATTTTCCTAATCTTTCTGTTCAAGCGCCATCTAC | 2.61 |
| GATGATTGTTCTCCCAGCTGATGAATTGCGGCGCTCGAGTAAACAAATTTTCCTAATCTTTCTGTTCAAGCGCCATCTAC | 0.839 |
| GATGATTGTTCTCCCAGCTGATGAATTCATCCTCTCGAGTAAACAAATTTTCCTAATCTTTCTGTTCAAGCGCCATCTAC | 0.392 |
| GATGATTGTTCTCCCAGCTGATGAATTATGTCGCTCGAGTAAACAAATTTTCCTAATCTTTCTGTTCAAGCGCCATCTAC | 1.12 |
| GATGATTGTTCTCCCAGCTGATGAATTGTATAGCTCGAGTAAACAAATTTTCCTAATCTTTCTGTTCAAGCGCCATCTAC | 1.05 |
| GATGATTGTTCTCCCAGCTGATGAATTTCAGCTGTCGAGTAAACAAATTTTCCTAATCTTTCTGTTCAAGCGCCATCTAC | 0.363 |
| GATGATTGTTCTCCCAGCTGATGAATTCGTACCTTCGAGTAAACAAATTTTCCTAATCTTTCTGTTCAAGCGCCATCTAC | 0.484 |
| GATGATTGTTCTCCCAGCTGATGAATTAAAGGCATCGAGTAAACAAATTTTCCTAATCTTTCTGTTCAAGCGCCATCTAC | 0.92 |
| GATGATTGTTCTCCCAGCTGATGAATTGCCAAAATCGAGTAAACAAATTTTCCTAATCTTTCTGTTCAAGCGCCATCTAC | 0.373 |
| GATGATTGTTCTCCCAGCTGATGAATTCTATCTATCGAGTAAACAAATTTTCCTAATCTTTCTGTTCAAGCGCCATCTAC | 0.774 |
| GATGATTGTTCTCCCAGCTGATGAATTCTCCGGCTCGAGTAAACAAATTTTCCTAATCTTTCTGTTCAAGCGCCATCTAC | 0.153 |
| GATGATTGTTCTCCCAGCTGATGAATTCTGAAACTCGAGTAAACAAATTTTCCTAATCTTTCTGTTCAAGCGCCATCTAC | 0.72 |
| GATGATTGTTCTCCCAGCTGATGAATTGCAGTCATCGAGTAAACAAATTTTCCTAATCTTTCTGTTCAAGCGCCATCTAC | 1.13 |
| GATGATTGTTCTCCCAGCTGATGAATTAAGTGACTCGAGTAAACAAATTTTCCTAATCTTTCTGTTCAAGCGCCATCTAC | 0.991 |
| GATGATTGTTCTCCCAGCTGATGAATTCTCGTTGTCGAGTAAACAAATTTTCCTAATCTTTCTGTTCAAGCGCCATCTAC | 0.561 |
| GATGATTGTTCTCCCAGCTGATGAATTCGTGCTGTCGAGTAAACAAATTTTCCTAATCTTTCTGTTCAAGCGCCATCTAC | 0.615 |
| GATGATTGTTCTCCCAGCTGATGAATTCCAATGCTCGAGTAAACAAATTTTCCTAATCTTTCTGTTCAAGCGCCATCTAC | 0.531 |
| GATGATTGTTCTCCCAGCTGATGAATTATCTGGGTCGAGTAAACAAATTTTCCTAATCTTTCTGTTCAAGCGCCATCTAC | 0.194 |
| GATGATTGTTCTCCCAGCTGATGAATTCATAACGTCGAGTAAACAAATTTTCCTAATCTTTCTGTTCAAGCGCCATCTAC | 0.394 |
| GATGATTGTTCTCCCAGCTGATGAATTGGACGCCTCGAGTAAACAAATTTTCCTAATCTTTCTGTTCAAGCGCCATCTAC | 0.645 |
